{"source": "paper PMC4336329", "about": "(PLoS ONE, 2015)", "note": "The whole screen tested about 310,000 compounds, of which about 2,200 (0.71%) showed an effect of 50% or more. The effect is printed as a negative number. This is one part of the list."}
{"target": "human ether-à-go-go-related gene (hERG) potassium channel (human, UniProt Q12809)", "sequence (Q12809 whole entry, looked up)": "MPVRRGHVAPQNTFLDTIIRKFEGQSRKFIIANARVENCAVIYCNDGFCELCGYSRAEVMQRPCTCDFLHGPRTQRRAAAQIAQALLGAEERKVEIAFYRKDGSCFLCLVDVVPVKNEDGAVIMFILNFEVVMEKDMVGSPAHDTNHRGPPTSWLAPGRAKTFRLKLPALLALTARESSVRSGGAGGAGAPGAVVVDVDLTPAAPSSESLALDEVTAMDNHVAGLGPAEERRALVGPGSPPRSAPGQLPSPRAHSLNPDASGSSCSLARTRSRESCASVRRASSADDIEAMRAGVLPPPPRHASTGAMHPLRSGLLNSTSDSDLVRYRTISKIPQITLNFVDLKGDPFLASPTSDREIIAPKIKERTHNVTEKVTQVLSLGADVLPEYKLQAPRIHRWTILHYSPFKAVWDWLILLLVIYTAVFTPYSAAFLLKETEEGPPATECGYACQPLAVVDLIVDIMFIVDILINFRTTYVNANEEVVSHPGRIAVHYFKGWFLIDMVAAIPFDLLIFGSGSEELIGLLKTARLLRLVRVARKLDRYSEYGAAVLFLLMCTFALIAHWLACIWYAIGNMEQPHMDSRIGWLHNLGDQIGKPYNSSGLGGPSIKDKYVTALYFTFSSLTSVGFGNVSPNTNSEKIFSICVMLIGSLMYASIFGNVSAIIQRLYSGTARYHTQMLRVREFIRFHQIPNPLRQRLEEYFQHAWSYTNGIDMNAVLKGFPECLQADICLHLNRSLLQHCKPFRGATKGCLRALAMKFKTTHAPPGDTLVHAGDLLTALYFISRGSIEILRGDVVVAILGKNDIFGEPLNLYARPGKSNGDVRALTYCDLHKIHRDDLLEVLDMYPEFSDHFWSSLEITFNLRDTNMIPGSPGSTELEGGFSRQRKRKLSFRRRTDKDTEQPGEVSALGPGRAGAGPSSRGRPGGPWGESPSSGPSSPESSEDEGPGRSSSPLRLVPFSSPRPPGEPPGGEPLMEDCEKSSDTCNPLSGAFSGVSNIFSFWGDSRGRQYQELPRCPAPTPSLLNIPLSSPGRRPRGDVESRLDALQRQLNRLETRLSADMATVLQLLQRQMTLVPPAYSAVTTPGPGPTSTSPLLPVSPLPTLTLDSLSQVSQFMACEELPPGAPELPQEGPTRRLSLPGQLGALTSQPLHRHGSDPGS", "assay": "primary screen, population patch clamp on CHO cells stably expressing hERG", "units": {"hERG current change (%, negative = inhibition) at 1uM": "%"}}
{"smiles": "Cc1ccc(-c2cc(C(=O)N3CCN(c4ccc(F)cc4)CC3)c3ccccc3n2)o1", "hERG current change (%, negative = inhibition) at 1uM": 5.27}
{"smiles": "CCN(CC)S(=O)(=O)c1ccc(-c2cn3cc(Cl)ccc3n2)cc1", "hERG current change (%, negative = inhibition) at 1uM": 6.26}
{"smiles": "Oc1ccccc1C=NC1CCCCC1N=Cc1ccccc1O", "note": "(stereo not shown)", "hERG current change (%, negative = inhibition) at 1uM": 18}
{"smiles": "Brc1cc2c(cc1Br)OCCOCCOCCOCCO2", "hERG current change (%, negative = inhibition) at 1uM": -38.2}
{"smiles": "O=Cc1cccn1Cc1ccc(Cl)cc1Cl", "hERG current change (%, negative = inhibition) at 1uM": 1.4}
{"smiles": "CC(=O)N(C)c1ccc(C(O)(C(F)(F)F)C(F)(F)F)cc1", "hERG current change (%, negative = inhibition) at 1uM": 12.5}
{"smiles": "COc1ccc(CNC(=O)C2CCN(c3cc(C(=O)Nc4cccc(OC)c4)ccn3)CC2)cc1", "hERG current change (%, negative = inhibition) at 1uM": -6.86}
{"smiles": "Cc1nc(-n2nnc3cc(C)c(C)cc32)c2c3c(sc2n1)CCCC3", "hERG current change (%, negative = inhibition) at 1uM": 2.21}
{"smiles": "CC(C)CCN(CCC(C)C)C(=O)Cc1c(O)c2ccccc2[nH]c1=O", "hERG current change (%, negative = inhibition) at 1uM": 8.87}
{"smiles": "CCOc1ccccc1N(CC(=O)NCc1ccc(OC)cc1)S(C)(=O)=O", "hERG current change (%, negative = inhibition) at 1uM": 3.96}
{"smiles": "COc1cccc(CN(C(=O)c2ccco2)C(C(=O)NC2CCCC2)c2cccnc2)c1", "note": "(stereo not shown)", "hERG current change (%, negative = inhibition) at 1uM": 9.48}
{"smiles": "COC(=O)N/N=C(\\C)c1ccc(-n2ccnc2)cc1", "hERG current change (%, negative = inhibition) at 1uM": 15.5}
{"smiles": "O=[N+]([O-])c1cc(Cl)ccc1NCCNc1ncc(C(F)(F)F)cc1Cl", "hERG current change (%, negative = inhibition) at 1uM": 3.79}
{"smiles": "O=C(COC(=O)C1CSC2(c3ccc(F)cc3)CCC(=O)N12)NC(=O)NC1CCCC1", "note": "(stereo not shown)", "hERG current change (%, negative = inhibition) at 1uM": 9.7}
{"smiles": "CC(=O)N1CCN(c2ccc(NC(=O)c3ccco3)cc2Cl)CC1", "hERG current change (%, negative = inhibition) at 1uM": 6.51}
{"smiles": "CCC(=O)Nc1ccc(Cl)c(NC(=O)c2ccc([N+](=O)[O-])cc2)c1", "hERG current change (%, negative = inhibition) at 1uM": 11.7}
{"smiles": "COc1ccccc1N1CCN(C(=O)c2ccc(CN3CCc4ccccc4C3)cc2)CC1", "hERG current change (%, negative = inhibition) at 1uM": 9.69}
{"smiles": "CCc1cccc(NC(=O)Cn2cccc2)c1", "hERG current change (%, negative = inhibition) at 1uM": -3.81}
{"smiles": "CCOC(=O)c1ccc(NC(=O)Nc2ccc3c4c(cccc24)C(=O)N3CC)cc1", "hERG current change (%, negative = inhibition) at 1uM": 12.5}
{"smiles": "CN(C)CC/C=C1/c2ccccc2Sc2ccc(Cl)cc21.Cl", "hERG current change (%, negative = inhibition) at 1uM": -16.4}
{"smiles": "CCOC(=O)C1CCCN(c2c(C(=O)c3ccccc3)cnc3ccccc23)C1", "note": "(stereo not shown)", "hERG current change (%, negative = inhibition) at 1uM": 12.2}
{"smiles": "Cc1[nH]c2ccc(F)cc2c1CCN(Cc1ccncc1)C(=S)Nc1cccc(F)c1", "hERG current change (%, negative = inhibition) at 1uM": 8.53}
{"smiles": "COc1c(Cl)cc(Cl)cc1C(=O)Nc1ccccc1N1CCN(C(C)=O)CC1", "hERG current change (%, negative = inhibition) at 1uM": 11.2}
{"smiles": "O=C(CSc1ncn[nH]1)Nc1nc(-c2ccccc2)cs1", "hERG current change (%, negative = inhibition) at 1uM": 6.6}
{"smiles": "CC(CNC(=O)CN1C(=O)c2cccnc2Oc2ccc(Cl)cc21)c1ccccc1", "note": "(stereo not shown)", "hERG current change (%, negative = inhibition) at 1uM": 14.1}
{"smiles": "O=C(O)C1CCCN(S(=O)(=O)Cc2ccccc2)C1", "note": "(stereo not shown)", "hERG current change (%, negative = inhibition) at 1uM": 7.9}
{"smiles": "Cc1ccc(S(=O)(=O)NCCC(=O)Oc2ccc3ccc(=O)oc3c2)cc1", "hERG current change (%, negative = inhibition) at 1uM": 5.43}
{"smiles": "C=CCNC(=O)CSc1nnc(-c2ccncc2)n1CCc1ccccc1", "hERG current change (%, negative = inhibition) at 1uM": 4.61}
{"smiles": "O=C(Nc1ccccc1C(=O)Nc1ccncc1)c1ccc([N+](=O)[O-])cc1", "hERG current change (%, negative = inhibition) at 1uM": 11.9}
{"smiles": "COC(=O)c1cc(OC)c(OC)cc1NC(=O)c1cccc(C)c1", "hERG current change (%, negative = inhibition) at 1uM": 8.73}
{"smiles": "CC(C)(C)NC(=O)CC(c1ccccc1)c1ccccc1O", "note": "(stereo not shown)", "hERG current change (%, negative = inhibition) at 1uM": 15.1}
{"smiles": "C=CCOc1cccc(/C=C2\\C(=O)N(Cc3ccc(C)cc3)C(C)=C2C(=O)OC)c1", "hERG current change (%, negative = inhibition) at 1uM": 11.6}
{"smiles": "Cc1cc(C(=O)N2CCN(C/C=C/c3ccccc3)CC2)no1", "hERG current change (%, negative = inhibition) at 1uM": -5.15}
{"smiles": "Cl.N=c1sccn1CC(=O)NCc1ccc(Cl)cc1Cl", "hERG current change (%, negative = inhibition) at 1uM": 7.91}
{"smiles": "COc1ccc(NC(=O)CN2CCCCC2)cc1.O=C(O)C(=O)O", "hERG current change (%, negative = inhibition) at 1uM": 10.6}
{"smiles": "OCc1nc2ccccc2n1CCCOc1ccccc1", "hERG current change (%, negative = inhibition) at 1uM": -0.689}
{"smiles": "CCOC(=O)N1CCC(NC(=O)CSCc2nc(-c3ccc(OC)c(OC)c3)oc2C)CC1", "hERG current change (%, negative = inhibition) at 1uM": 12.2}
{"smiles": "NC(=O)CSCc1cccc(Br)c1", "hERG current change (%, negative = inhibition) at 1uM": 14}
{"smiles": "NS(=O)(=O)c1cccc(NC(=O)CSc2n[nH]c(-c3cccs3)n2)c1", "hERG current change (%, negative = inhibition) at 1uM": 3.46}
{"smiles": "CN(C)C=O.N#Cc1ccccc1OCC(=O)OCC(=O)c1ccc2c(c1)NC(=O)CO2", "hERG current change (%, negative = inhibition) at 1uM": 11.6}
{"smiles": "Cc1ccc(Cn2nc(C)c(C(=O)NCC(c3ccc(F)cc3)N3CCOCC3)c2Cl)cc1", "note": "(stereo not shown)", "hERG current change (%, negative = inhibition) at 1uM": 3.02}
{"smiles": "NCCCC[C@@H]1NC(=O)c2cc([N+](=O)[O-])cc(I)c2SC[C@@H](C(N)=O)NC(=O)[C@H](CCC(N)=O)NC1=O", "hERG current change (%, negative = inhibition) at 1uM": 19.9}
{"smiles": "CC1CCCCN1C(=O)CSc1nc(N)cc(=O)[nH]1", "note": "(stereo not shown)", "hERG current change (%, negative = inhibition) at 1uM": 13.4}
{"smiles": "O=C(c1cccc([N+](=O)[O-])c1)N1CCN(Cc2ccc3c(c2)OCO3)CC1", "hERG current change (%, negative = inhibition) at 1uM": 3.14}
{"smiles": "O=C(CN1CCCc2ccccc21)NC(=O)NCc1ccccc1", "hERG current change (%, negative = inhibition) at 1uM": 9.1}
{"smiles": "CC(C)(O)C#Cc1ccc(CN2CCCC(CO)(Cc3cccc(Cl)c3)C2)cc1", "note": "(stereo not shown)", "hERG current change (%, negative = inhibition) at 1uM": -7.53}
{"smiles": "CCOC(=O)Cc1nn(Cc2nc(-c3ccc(C#N)cc3)cs2)c(=O)c2ccccc12", "hERG current change (%, negative = inhibition) at 1uM": -4.66}
{"smiles": "Cc1ccc(NC(=O)CN2CCCC2)cc1.Cl", "hERG current change (%, negative = inhibition) at 1uM": 17.9}
{"smiles": "CCOC(=O)C1=C(C)NC2=C(C(=O)CC(C)(C)C2)C1c1ccsc1", "note": "(stereo not shown)", "hERG current change (%, negative = inhibition) at 1uM": 9.2}
{"smiles": "COc1ccc(C(=O)NCCNC(=O)c2ccccn2)cc1", "hERG current change (%, negative = inhibition) at 1uM": 17.2}
{"smiles": "CC[C@@H](Nc1ncnc2c1oc1ccccc12)C(=O)O", "hERG current change (%, negative = inhibition) at 1uM": 5.98}
{"smiles": "O=C1CCCC/C1=C/Nc1ccc(S(=O)(=O)Nc2ncccn2)cc1", "hERG current change (%, negative = inhibition) at 1uM": 4.37}
{"smiles": "O=C1CC(c2ccccc2Oc2cccc(Cl)c2)C(n2cncn2)C(=O)C1C1NCCc2ccccc21", "note": "(stereo not shown)", "hERG current change (%, negative = inhibition) at 1uM": 4.67}
{"smiles": "Nc1ccc(Oc2ccc3nc(-c4ccccc4)c(-c4ccccc4)nc3c2)cc1", "hERG current change (%, negative = inhibition) at 1uM": 3.57}
{"smiles": "Cc1ccc2nc(NC(=O)C3CCCN(S(=O)(=O)c4cccc5nsnc45)C3)sc2c1", "note": "(stereo not shown)", "hERG current change (%, negative = inhibition) at 1uM": 11.6}
